The values that follow come from PubChem BioAssay (NCI).

Molecules are shown by their SMILES. Several values for one entry are separate records, joined by “and”; a condition that tells them apart may be missing. Equal entries are not always repeated.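 Five concentrations, 48 hours, 96-well plates. The concentration for 50% growth inhibition is given as GI50. The concentration for full growth arrest is given as TGI.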 Where only a bound is given, the exact number is not on record here.

For this assay, the system named is NCI-H322M lung. As to the kind of experiment: inhibition of tumour cell growth, NCI panel, 48 h.
For `COC(=O)/C=C1/CCC(C)(C(=O)NS(=O)(=O)c2ccc(C)cc2)C1(C)C` (stereo not drawn), the TGI is > 100 µM.
Same read-out and setting: to `C/C=C/C1=CC(=O)C(O)C1O` (stereo not drawn) belongs 96.1 µM; to `Cc1cccc2c1N(C(=O)/C=C\C(=O)O)C(c1c(C)[nH]c3ccccc13)C2` (stereo not drawn), > 100 µM.
With `Clc1ccc2c(c1)N(CCCN1CCCC1)c1ccccc1S2`, the GI50 is 10.6 µM and the TGI stood at 23.6 µM.
Taken in the same sequence, the figures for `CCCCCCCCN(CCCCCCCC)CCCCCCNc1cc(OC)cc2cccnc12` were 14.8 µM and 30.3 µM.
For `CC(NC(=O)C(N)CC(=O)O)NC(=O)C1CCC1` (stereo not drawn), the TGI is > 100 µM.
Same read-out and setting: under `Nc1cc(N2CCCC2)nc(=O)n1-c1ccccc1` stands > 100 µM; under `COc1cc(OC)c(/C=C\c2cc(/C=C/c3c(OC)cc(OC)cc3OC)c3ccccc3[n+]2C)c(OC)c1`, 22.6 µM; under `CNC(=O)N(CCC#N)CCCN(C(=O)NC)c1ccccc1`, > 100 µM.
As to `CC1(C)CCC2=C(O1)c1ccccc1C(=O)C2=O`, the GI50 is 1.69 µM; the TGI was 3.07 µM and 2.39 µM.
For `COC(=O)c1c(O)ccc2c1c1c(n2Cc2ccc(Cl)cc2Cl)C(=O)c2ccccc2C1=O`, the TGI was 27.8 µM.
Same read-out and setting: under `O=c1oc2ccccc2c(O)c1/C=N/C(=S)NCCc1ccccc1` stands > 100 µM; under `CN(C)P(=O)(Oc1ccc(CC(NC(=O)OCc2ccccc2)C(=O)OCc2ccccc2)cc1)N(C)C` (stereo not drawn), 36.6 µM; under `COC(=O)[C@@H]1CN(C(C)=O)C(=O)N1C(=O)OCc1ccccc1`, > 100 µM.
Take `c1cc2[nH]ncc2cc1-c1nc2ccc3[nH]ncc3c2c2c1CCCC2`: the GI50 is 1.19 µM and the TGI came out at 8.53 µM.
`CCC[C@H](NS(=O)c1ccc(C)cc1)C(C(=O)OCC)=C(c1ccccc1)c1ccccc1` (stereo partly drawn) registered a TGI of 53.5 µM.
Same read-out and setting: to `CC(=O)Nc1ccc2[nH]c(-c3cccc(Cl)c3)cc(=O)c2c1` belongs > 100 µM; to `CC(=O)NC(CCC(=O)C=[N+]=N)C(=O)O` (stereo not drawn), > 100 µM; to `Cc1[nH]nc(N)c1C(N)=O`, > 100 µM.
Turning to `C=C(C)[C@@H]1CC[C@]2(C(=O)O)CC[C@]3(C)[C@H](CC[C@@H]4[C@@]5(C)C[C@@H](CC#Cc6ccc(C(F)(F)F)cc6)[C@H](O)C(C)(C)[C@@H]5CC[C@]43C)[C@@H]12`, the GI50 is 4.38 µM and the TGI is > 100 µM.
Taken in the same sequence, the figures for `CCOC(=O)n1cc(C2=C(c3cn(C)c4ccccc34)COC2=O)c2ccccc21` were 0.938 µM and > 100 µM.
Taken in the same sequence, the figures for `CCN1C(=O)N(CC)C2Nn3c(s/c(=C\c4ccccc4Br)c3=O)=NC21` (stereo not drawn) were 3.71 µM and > 100 µM.
In the case of `CN(N)c1cc(=O)[nH]c(=O)[nH]1`, the TGI was > 100 µM.
On the same count and under the same terms, under `O=c1[nH]nc(Cc2ccccc2)n1/N=C\c1ccccc1` stands > 100 µM; under `COc1cc(OC)c(/C=C\c2ccnc3ccccc23)c(OC)c1`, 14.9 µM.
Same read-out and setting: under `CC1(C)C(O)C[C@@H](O)[C@@]2(C)C1CC[C@]1(C)C2C[C@@H](O)[C@@H]2C([C@@]3(C)CC[C@@H](C(C)(C)O)O3)CCC21C` (stereo partly drawn) stands 39.2 µM; under `Clc1cc(Cl)cc(C2ON=C(c3ccccc3)N2C23CC4CC(CC(C4)C2)C3)c1` (stereo not drawn), > 10 µM.
Still for that read-out and setting: to `CC(=O)c1ccc(OCC(O)CO)cc1` (stereo not drawn) belongs > 100 µM; to `CNCc1cc(OC)ccc1-c1ccc(OC)c(OC)c1OC`, > 100 µM.
The molecule `NCCN1C(=O)CN=C(c2ccc(Cl)cc2)c2cc(Cl)ccc21` yielded a TGI of 36.3 µM.
On to `CCCCCCOc1ccc(C(=O)NO)cc1`, for which the TGI was found to be 57.4 µM.
On to `O=C1C(=O)c2c(nc3ccc(Br)cn23)-c2ccccc21`, for which the GI50 is 1.77 µM and the TGI came out at 3.17 µM.
As for `CC(NC(=O)c1ccccc1)NC(=O)C(C)C(=O)Nc1ccccc1` (stereo not drawn), the TGI was > 100 µM.
Same read-out and setting: under `CCc1n[nH]c(=O)n1/N=C/c1ccc(C)cc1` stands > 100 µM.
On to `OCC(O)C(O)C(O)c1nn(-c2ccc(Cl)cc2)c2nc3cc(Cl)c(Cl)cc3nc12` (stereo not drawn), for which the TGI is > 100 µM.
On the same count and under the same terms, under `Cc1nc2c(=O)n(-c3ccccc3)c3ccccc3c2o1` stands > 100 µM.
Take `CC1=C/C(=N\O)C(C(O)(C(F)(F)F)C(F)(F)F)C(C)(C)C1` (stereo not drawn): the TGI is > 10 µM.
Still for that read-out and setting: under `C=C(C)[C@H]1C=C[C@@H](OC(=O)c2cccnc2)[C@@]23CO[C@@](C)([C@H](OC(=O)c4cccnc4)[C@@]4(OC(C)=O)C[C@H](C)[C@H](OCCC)[C@@H]4[C@H]2OC(C)=O)[C@H]13` stands > 15 µM; under `Cc1ccc(N=Nc2ccc(O)c(CN(C)C)c2)cc1`, > 100 µM; under `O=C(c1ccccc1)c1ccc(-n2c3ccccc3c3ccc4c(c32)C(=O)C=CC4=O)cc1`, 35.9 µM.
Turning to `Cn1cc(C2=C(c3cn(C)c4c([N+](=O)[O-])cccc34)C(=O)NC2=O)c2ccccc21`, the GI50 was > 25 µM and the TGI is > 25 µM.
With `COc1ccc(C(CC(=O)C(C)(C)CN2CCCCC2)SCCS(=O)(=O)O)cc1` (stereo not drawn), the TGI is > 100 µM.
As to `O=C(CN(/C=C/C(=O)C(F)(F)F)c1ccc(Cl)cc1)c1ccccc1`, the GI50 was 15.2 µM and the TGI was 42.6 µM.
With `CC(C)NC(=O)OCc1c(COC(=O)NC(C)C)c(-c2cc[n+](COC(=O)C(C)(C)C)cc2)n2c1CCC2`, the TGI was > 100 µM.
Regarding `Cl.Fc1c[c-]c(-c2ccccn2)c(F)c1.[Pt].c1ccc(P(c2ccccc2)C([PH+](c2ccccc2)c2ccccc2)[PH+](c2ccccc2)c2ccccc2)cc1`, the GI50 is 3.32 µM and the TGI stood at 17.2 µM.
Taken in the same sequence, the figures for `Nc1nc(OCc2cc(Br)cs2)c2[nH]cnc2n1` were 20.5 µM and > 100 µM.
As to `COc1cc(OC)c2nc(C)c3c(c2c1)NCC3`, the TGI is 29.8 µM.
For the molecule `COc1ccc(C(SCC(N)C(=O)O)(c2ccccc2)c2ccccc2)cc1` (stereo not drawn), the GI50 was 0.279 µM and the TGI is > 100 µM.
Turning to `COC1CCN(C(=O)c2cc(Cc3n[nH]c(=O)c4ccccc34)ccc2F)CC1`, the GI50 was > 100 µM and the TGI was > 100 µM.
`CC(SC(=S)N1CCOCC1)C(=O)Nc1nnc(-c2ccccc2)o1` (stereo not drawn): the TGI was > 100 µM.
For the molecule `CN(C)c1ccc(N=C2C=CC(=[N+](C)C)C=C2)cc1`, the GI50 was 21.1 µM and the TGI was > 100 µM.
Consider `Nc1ccn(C2CCC(CO)O2)c(=S)n1` (stereo not drawn), for which the TGI was > 100 µM.
Take `Cc1cc2c(cc1C)[n+](=O)c(C(=O)C/C(=N/OCCCc1ccccc1)C(=O)Nc1cc(Cl)ccc1Cl)c(C)n2[O-]`: the TGI is > 100 µM.
The same measure, in the same setting: under `CC1=CC[C@@]2(CO)[C@@H]([C@@H]1C)[C@H]1CC[C@@H]3[C@@]4(C)CC[C@H](O)C(C)(C)[C@@H]4CC[C@@]3(C)[C@]1(C)C[C@@H]2O` stands > 100 µM.
Regarding `Cc1ccc(-c2cc3c(SCC(=O)Nc4cc(C(F)(F)F)ccc4Cl)nccn3n2)cc1`, the GI50 is > 100 µM and the TGI is > 100 µM.
`CC(=O)Oc1ccccc1/C=C/C(=O)/C=C/c1ccccc1OC(C)=O` showed a TGI of 5.56 µM.
The same measure, in the same setting: to `COc1ccc(OCc2ccc3nc(-c4ccccc4)c(Cl)nc3c2)cc1` belongs > 100 µM; to `COc1cc(S(=O)(=O)Nc2ccc(-c3csc(N)n3)cc2)ccc1Cl`, 35.6 µM.
`CC1=CC(=C(c2ccc(N)cc2)c2ccc(N)cc2)C=CC1=N`: the GI50 is 0.953 µM and 3.59 µM; the TGI is 11.8 µM and 62.6 µM and 10.2 µM.
With `C=CC(C1=CC(=O)C(OC)=CC1=O)c1ccccc1` (stereo not drawn), the TGI stood at 31.8 µM.
Still for that read-out and setting: to `S=C1CC(c2ccccc2)Sc2ccccc2N1` (stereo not drawn) belongs > 100 µM.
